Data from the supplement of paper PMC8728848.
This is one part of the list.

Columns and labels:
Assay in all cases: glycan array binding signal (z-score within array); higher = stronger binding
Conditions in all cases: glycan notation: IUPAC condensed, linker removed
[1] = target: Neu5Ac(a2-3)Gal(b1-3)[Neu5Ac(a2-6)]GlcNAc(b1-3)[Fuc(a1-3)[Gal(b1-4)]GlcNAc(b1-6)]Gal(b1-4)Glc
In short: (§1)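 The binding signal is a Z-score computed within each array. Data were drawn from 3228 arrays in the Consortium for Functional Glycomics database, restricted to those with a known protein sequence. Scores were averaged over arrays of the same protein sequence at different concentrations or buffers, and over linkers, and negative values can be taken as non-binding.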

Neu5Ac(a2-3)Gal(b1-4)Glc = target: Neu5Ac(a2-3)Gal(b1-4)Glc
In short: as §1

[2] = target: Neu5Ac(a2-3)Gal(b1-4)GlcNAc
In short: as §1

[3] = target: Neu5Ac(a2-3)Gal(b1-4)GlcNAc(b1-2)Man
In short: as §1

[4] = target: Neu5Ac(a2-3)Gal(b1-4)GlcNAc(b1-2)Man(a1-3)[GlcNAc(b1-2)Man(b1-4)GlcNAc(b1-2)Man(a1-6)]Man(b1-4)GlcNAc(b1-4)GlcNAc
In short: as §1

[5] = target: Neu5Ac(a2-3)Gal(b1-4)GlcNAc(b1-2)Man(a1-3)[Neu5Ac(a2-3)Gal(b1-4)GlcNAc(b1-2)Man(a1-6)]Man(b1-4)GlcNAc(b1-4)[Fuc(a1-6)]GlcNAc
In short: as §1

[6] = target: Neu5Ac(a2-3)Gal(b1-4)GlcNAc(b1-2)Man(a1-3)[Neu5Ac(a2-6)Gal(b1-4)GlcNAc(b1-2)Man(a1-6)]Man(b1-4)GlcNAc(b1-4)GlcNAc
In short: as §1

[7] = target: Neu5Ac(a2-3)Gal(b1-4)GlcNAc(b1-2)[Neu5Ac(a2-3)Gal(b1-4)GlcNAc(b1-6)]Man(a1-6)[Neu5Ac(a2-3)Gal(b1-4)GlcNAc(b1-2)Man(a1-3)]Man(b1-4)GlcNAc(b1-4)GlcNAc
In short: as §1

[8] = target: Neu5Ac(a2-3)Gal(b1-4)GlcNAc(b1-3)Gal
In short: as §1

[9] = target: Neu5Ac(a2-3)Gal(b1-4)GlcNAc(b1-3)Gal(b1-3)GlcNAc
In short: as §1

[10] = target: Neu5Ac(a2-3)Gal(b1-4)GlcNAc(b1-3)Gal(b1-4)GlcNAc
In short: as §1

[11] = target: Neu5Ac(a2-3)Gal(b1-4)GlcNAc(b1-3)Gal(b1-4)GlcNAc(b1-3)Gal(b1-4)GlcNAc
In short: as §1

[12] = target: Neu5Ac(a2-3)Gal(b1-4)GlcNAc(b1-3)Gal(b1-4)[Fuc(a1-3)]GlcNAc
In short: as §1

[13] = target: Neu5Ac(a2-3)Gal(b1-4)GlcNAc(b1-3)GalNAc
In short: as §1

[14] = target: Neu5Ac(a2-3)Gal(b1-4)GlcNAc(b1-3)[Neu5Ac(a2-3)Gal(b1-4)GlcNAc(b1-6)]GalNAc
In short: as §1

[15] = target: Neu5Ac(a2-3)Gal(b1-4)GlcNAc(b1-6)GalNAc
In short: as §1

[16] = target: Neu5Ac(a2-3)Gal(b1-4)GlcNAc(b1-6)[Gal(b1-3)]GalNAc
In short: as §1

[17] = target: Neu5Ac(a2-3)Gal(b1-4)GlcNAc(b1-6)[Neu5Ac(a2-3)Gal(b1-3)]GalNAc
In short: as §1

[18] = target: Neu5Ac(a2-3)Gal(b1-4)GlcNAc6S
In short: as §1

[19] = target: Neu5Ac(a2-3)Gal(b1-4)[Fuc(a1-3)]GlcNAc
In short: as §1

[20] = target: Neu5Ac(a2-3)Gal(b1-4)[Fuc(a1-3)]GlcNAc(b1-3)Gal
In short: as §1

[21] = target: Neu5Ac(a2-3)Gal(b1-4)[Fuc(a1-3)]GlcNAc(b1-3)Gal(b1-4)GlcNAc
In short: as §1

[22] = target: Neu5Ac(a2-3)Gal(b1-4)[Fuc(a1-3)]GlcNAc(b1-3)Gal(b1-4)[Fuc(a1-3)]GlcNAc(b1-3)Gal(b1-4)[Fuc(a1-3)]GlcNAc
In short: as §1

[23] = target: Neu5Ac(a2-3)Gal(b1-4)[Fuc(a1-3)]GlcNAc(b1-3)GalNAc
In short: as §1

[24] = target: Neu5Ac(a2-3)Gal(b1-4)[Fuc(a1-3)]GlcNAc(b1-6)[Gal(b1-3)]GalNAc
In short: as §1

[25] = target: Neu5Ac(a2-3)Gal(b1-4)[Fuc(a1-3)]GlcNAc6S
In short: as §1

[26] = target: Neu5Ac(a2-3)Gal6S(b1-4)GlcNAc
In short: as §1

[27] = target: Neu5Ac(a2-3)Gal6S(b1-4)[Fuc(a1-3)]GlcNAc
In short: as §1

Neu5Ac(a2-3)GalNAc = target: Neu5Ac(a2-3)GalNAc
In short: as §1

[28] = target: Neu5Ac(a2-3)GalNAc(b1-4)GlcNAc
In short: as §1

[29] = target: Neu5Ac(a2-3)[GalNAc(b1-4)]Gal(b1-4)Glc
In short: as §1

[30] = target: Neu5Ac(a2-3)[GalNAc(b1-4)]Gal(b1-4)GlcNAc
In short: as §1

[31] = target: Neu5Ac(a2-3)[GalNAc(b1-4)]Gal(b1-4)GlcNAc(b1-3)GalNAc
In short: as §1

[32] = target: Neu5Ac(a2-3)[Neu5Ac(a2-6)]GalNAc
In short: as §1

Neu5Ac(a2-6)Gal = target: Neu5Ac(a2-6)Gal
In short: as §1

[33] = target: Neu5Ac(a2-6)Gal(b1-3)GlcNAc(b1-3)[Gal(b1-4)GlcNAc(b1-6)]Gal(b1-4)Glc
In short: as §1

Neu5Ac(a2-6)Gal(b1-4)Glc = target: Neu5Ac(a2-6)Gal(b1-4)Glc
In short: as §1

[34] = target: Neu5Ac(a2-6)Gal(b1-4)GlcNAc
In short: as §1

[35] = target: Neu5Ac(a2-6)Gal(b1-4)GlcNAc(b1-2)Man(a1-3)Man(b1-4)GlcNAc(b1-4)GlcNAc
In short: as §1

[36] = target: Neu5Ac(a2-6)Gal(b1-4)GlcNAc(b1-2)Man(a1-3)[Gal(b1-4)GlcNAc(b1-2)Man(a1-6)]Man(b1-4)GlcNAc(b1-4)GlcNAc
In short: as §1

[37] = target: Neu5Ac(a2-6)Gal(b1-4)GlcNAc(b1-2)Man(a1-3)[GlcNAc(b1-2)Man(a1-6)]Man(b1-4)GlcNAc(b1-4)GlcNAc
In short: as §1

[38] = target: Neu5Ac(a2-6)Gal(b1-4)GlcNAc(b1-2)Man(a1-3)[GlcNAc(b1-2)Man(b1-4)GlcNAc(b1-2)Man(a1-6)]Man(b1-4)GlcNAc(b1-4)GlcNAc
In short: as §1

B1: SalT (Orysata sativa) (protein)
chain: MTLVKIGLWGGNGGSAQDISVPPKKLLGVTIYSSDAIRSIAFNYIGVDGQEYAIGPWGGGEGTSTEIKLGSSEHIKEISGTHGPVYDLADIVTYLKIVTSANNTYEAGVPNGKEFSIPLQDSGHVVGFFGRSGTLIDAIGIYVHPILEQKLISEEDLNSAVDHHHHHH
glycan array binding signal (z-score) [1]: -0.308 | glycan array binding signal (z-score) (Neu5Ac(a2-3)Gal(b1-4)Glc): -0.309 | glycan array binding signal (z-score) [2]: -0.304 | glycan array binding signal (z-score) [3]: -0.262 | glycan array binding signal (z-score) [4]: 2.11 | glycan array binding signal (z-score) [5]: 0.271 | glycan array binding signal (z-score) [6]: 2.55 | glycan array binding signal (z-score) [7]: 0.818 | glycan array binding signal (z-score) [8]: -0.311 | glycan array binding signal (z-score) [9]: -0.311 | glycan array binding signal (z-score) [10]: -0.312 | glycan array binding signal (z-score) [11]: -0.308 | glycan array binding signal (z-score) [12]: -0.309 | glycan array binding signal (z-score) [13]: -0.308 | glycan array binding signal (z-score) [14]: -0.309 | glycan array binding signal (z-score) [15]: -0.308 | glycan array binding signal (z-score) [16]: -0.309 | glycan array binding signal (z-score) [17]: -0.309 | glycan array binding signal (z-score) [18]: -0.309 | glycan array binding signal (z-score) [19]: -0.307 | glycan array binding signal (z-score) [20]: -0.31 | glycan array binding signal (z-score) [21]: -0.302 | glycan array binding signal (z-score) [22]: -0.305 | glycan array binding signal (z-score) [23]: -0.29 | glycan array binding signal (z-score) [24]: -0.303 | glycan array binding signal (z-score) [25]: -0.305 | glycan array binding signal (z-score) [26]: -0.308 | glycan array binding signal (z-score) [27]: -0.311 | glycan array binding signal (z-score) (Neu5Ac(a2-3)GalNAc): -0.31 | glycan array binding signal (z-score) [28]: -0.309 | glycan array binding signal (z-score) [29]: -0.31 | glycan array binding signal (z-score) [30]: -0.309 | glycan array binding signal (z-score) [31]: -0.306 | glycan array binding signal (z-score) [32]: -0.306 | glycan array binding signal (z-score) (Neu5Ac(a2-6)Gal): -0.305 | glycan array binding signal (z-score) [33]: -0.31 | glycan array binding signal (z-score) (Neu5Ac(a2-6)Gal(b1-4)Glc): -0.307 | glycan array binding signal (z-score) [34]: -0.305 | glycan array binding signal (z-score) [35]: 3.25 | glycan array binding signal (z-score) [36]: 3.49 | glycan array binding signal (z-score) [37]: 2.8 | glycan array binding signal (z-score) [38]: 2.98
